The list shows a part of the results. The full chains were built here from the parent and the listed change. Values near 0.05 are background.
B1: TEV protease; numbered along this chain (parent)
chain: MGESLFKGPRDYNPISSSICHLTNESDGHTTSLYGIGFGPFIITNKHLFRRNNGTLVVQSLHGVFKVKDTTTLQQHLVDGRDMIIIRMPKDFPPFPQKLKFREPQREERICLVTTNFQTKSMSSMVSDTSCTFPSGDGIFWKHWIQTKDGQCGSPLVSTRDGFIVGIHSASNFTNTNNYFTSVPKNFMELLTNQEAQQWVSGWRLNADSVLWGGHKVFMVKPEEPFQPVKEATQL

Variants of: B1
Experiment: raw area under fraction-flipped curve 0-4 h after induction (AUC4h, not background-subtracted), DNA-recorder readout of cleavage of the substrate (dimensionless); higher = more cleavage of the substrate by the protease variant
Settings: temperature: 34 °C; time window: 0-4 h after rhamnose induction
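Note: Bxb1 expression induced with 0.2% (w/v) L-rhamnose at OD600 near 0.5, cultures sampled hourly, flipped fraction per protease–substrate barcode pair counted by paired-end Illumina sequencing.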

| Variant | area with substrate ENLYFQI | area with substrate ENLYFQK | area with substrate ENLYFQL | area with substrate ENLYFQM | area with substrate ENLYFQN | area with substrate ENLYFQS | area with substrate ENLYFQT | area with substrate ENLYFQF | area with substrate ENLYFQR | area with substrate ENLYFQW |
| --- | --- | --- | --- | --- | --- | --- | --- | --- | --- | --- |
| E223G | 0.0467 | 0.0701 | 0.0653 | 0.112 | 0.0806 | 0.105 | 0.0521 | – | – | – |
| E107F | – | 0.0735 | – | – | – | 0.0911 | – | 0.081 | 0.0577 | 0.0856 |
| V78T | 0.0553 | – | 0.0544 | – | – | 0.0897 | – | – | 0.0593 | 0.0554 |
| T114D | – | 0.0734 | – | 0.0698 | 0.082 | 0.0868 | – | – | 0.0443 | – |
| T114C | 0.0713 | – | – | 0.0836 | 0.0764 | 0.095 | 0.0483 | – | 0.0679 | 0.0648 |
| F180D | – | 0.0533 | 0.098 | 0.0537 | 0.0487 | 0.0512 | 0.0635 | – | 0.0668 | 0.0452 |
| M122G | – | – | 0.0541 | 0.073 | – | 0.103 | 0.071 | – | 0.075 | – |
| L5Y | 0.0512 | 0.0517 | 0.0779 | 0.107 | 0.125 | 0.118 | 0.0768 | 0.0888 | 0.0595 | – |
| Y179W | – | – | 0.0404 | 0.0657 | 0.055 | 0.0617 | 0.0606 | – | – | – |
| P93Y | 0.0609 | – | 0.0837 | – | – | 0.0948 | 0.0612 | – | – | – |
| P93N | – | – | 0.0572 | – | – | 0.0997 | – | – | 0.0544 | – |
| L211S | 0.0442 | – | 0.0501 | 0.143 | – | 0.138 | – | – | – | – |
| G213N | 0.0932 | – | 0.0555 | 0.069 | – | 0.0702 | 0.0598 | – | – | 0.0625 |
| Q197N | 0.082 | 0.069 | 0.0817 | – | 0.062 | 0.0842 | – | – | 0.0667 | – |
| Q197F | 0.0372 | – | 0.0824 | – | 0.0813 | 0.11 | 0.0783 | – | 0.0578 | 0.066 |
| T159R | – | 0.0758 | 0.0459 | 0.0846 | 0.0846 | 0.117 | 0.0672 | 0.108 | – | 0.0544 |
| T159A | – | – | 0.0619 | 0.108 | – | 0.0896 | 0.0616 | – | – | 0.0862 |
| T159F | – | – | 0.0364 | – | – | 0.102 | – | – | – | 0.0682 |
| Y34N | – | – | – | 0.0771 | 0.0783 | 0.0919 | – | 0.0919 | 0.0612 | – |
| Y34K | – | – | 0.059 | – | – | 0.0911 | – | 0.0728 | – | 0.0465 |
| V58Q | 0.0511 | – | – | – | 0.0619 | 0.0587 | – | – | 0.0622 | – |

| Variant | area with substrate ENLYFQI | area with substrate ENLYFQK | area with substrate ENLYFQL | area with substrate ENLYFQM | area with substrate ENLYFQN | area with substrate ENLYFQS | area with substrate ENLYFQT | area with substrate ENLYFQF | area with substrate ENLYFQR | area with substrate ENLYFQW |
| --- | --- | --- | --- | --- | --- | --- | --- | --- | --- | --- |
| V58T | – | – | 0.0516 | – | – | 0.106 | – | – | 0.0564 | – |
| V210T | – | 0.0629 | 0.0714 | 0.0482 | 0.0653 | 0.0938 | 0.0742 | 0.0553 | 0.0564 | – |
| R106L | 0.0297 | 0.0645 | – | 0.0958 | – | 0.115 | 0.0536 | – | 0.0557 | 0.0984 |
| P9H | – | 0.0639 | – | 0.0994 | – | 0.115 | 0.061 | 0.0882 | 0.0571 | – |
| I164K | – | 0.0389 | – | – | – | 0.0538 | – | 0.0492 | – | – |
| P134S | 0.0578 | – | 0.0502 | 0.0699 | 0.0552 | 0.0938 | 0.0597 | – | 0.0627 | – |
| F218T | – | 0.0542 | 0.0554 | – | 0.0791 | 0.103 | – | – | – | – |
| P225S | 0.0761 | 0.0587 | – | – | – | 0.108 | 0.0568 | – | 0.0575 | 0.0583 |
| T174V | – | – | – | 0.0727 | 0.0605 | 0.0784 | 0.0615 | – | 0.0523 | 0.0634 |
| G8E | – | 0.0671 | – | – | – | 0.0976 | – | – | – | – |
| F101Y | – | – | 0.0489 | – | – | 0.0817 | 0.0508 | – | 0.0483 | – |
| R87G | – | – | 0.0591 | – | – | 0.0875 | – | – | – | – |
| F226S | 0.0531 | 0.0635 | 0.0589 | 0.103 | 0.0879 | 0.108 | 0.076 | – | 0.0648 | 0.0685 |
| K7I | 0.0614 | 0.0996 | – | 0.0684 | – | 0.0701 | 0.0627 | – | 0.058 | 0.0538 |
| K7E | 0.0508 | 0.0628 | – | – | 0.0825 | 0.0953 | – | – | – | – |
| Q151A | 0.0363 | – | – | – | 0.0642 | 0.0977 | 0.0562 | – | 0.06 | 0.0684 |
| I139L | – | 0.0588 | 0.0603 | 0.0901 | 0.0885 | 0.115 | 0.0751 | 0.0907 | 0.0601 | 0.0752 |
| I139E | 0.0678 | 0.0736 | – | 0.0952 | – | 0.106 | 0.0697 | – | – | – |
| G35Q | 0.0401 | – | 0.0387 | 0.0398 | 0.0559 | 0.0452 | – | – | – | 0.0458 |
| E189S | 0.0594 | – | 0.0588 | 0.0927 | 0.0934 | 0.0924 | 0.0579 | 0.069 | 0.0601 | – |

Same assay, conditions: temperature: 34 °C; time window: 0-4 h after rhamnose induction

| Variant | area with substrate ENLYFQD | area with substrate ENLYFQG | area with substrate ENLYFQQ | area with substrate ENLYFQV | area with substrate ENLYFQH | area with substrate ENLYFQP | area with substrate ENLYFQY | area with substrate ENLYFQE | area with substrate ENLYFQC |
| --- | --- | --- | --- | --- | --- | --- | --- | --- | --- |
| V78T | 0.0564 | 0.0743 | 0.0819 | 0.0409 | – | – | – | – | – |
| T114D | – | – | – | 0.0632 | – | – | – | – | – |
| T114C | – | – | – | – | 0.0846 | – | – | – | – |
| F180D | – | – | – | – | 0.0568 | 0.0685 | 0.049 | – | – |
| M122G | 0.0786 | 0.098 | – | – | – | – | – | – | – |
| L5Y | – | 0.0921 | – | 0.0637 | – | 0.0426 | – | – | – |
| Y179W | – | 0.074 | – | – | – | – | – | – | – |
| P93Y | – | 0.0711 | – | 0.0588 | – | 0.0741 | – | – | – |
| P93N | – | – | – | – | 0.0917 | – | 0.0733 | 0.0509 | – |
| L211S | – | – | – | 0.0831 | 0.119 | – | 0.0595 | – | – |
| G213N | – | – | – | 0.048 | 0.0583 | 0.0632 | – | – | – |
| Q197F | – | 0.115 | – | 0.0496 | – | 0.0714 | 0.0787 | – | – |
| T159R | 0.0811 | – | – | – | – | – | – | – | – |
| T159A | – | 0.0875 | – | – | 0.0545 | – | – | 0.0571 | – |
| T159F | – | – | – | – | – | – | – | – | 0.104 |
| Y34N | – | 0.0769 | – | – | – | – | 0.0669 | – | – |
| Y34K | – | 0.0886 | – | – | – | – | – | – | – |
| V58Q | – | 0.0495 | – | – | – | – | 0.0299 | – | – |
| V58T | 0.104 | – | – | – | – | – | – | – | – |

| Variant | area with substrate ENLYFQD | area with substrate ENLYFQG | area with substrate ENLYFQQ | area with substrate ENLYFQV | area with substrate ENLYFQH | area with substrate ENLYFQP | area with substrate ENLYFQY | area with substrate ENLYFQE | area with substrate ENLYFQC |
| --- | --- | --- | --- | --- | --- | --- | --- | --- | --- |
| V210T | – | 0.102 | – | 0.0565 | – | 0.0575 | – | – | – |
| R106L | – | – | 0.104 | 0.0634 | 0.0955 | 0.0587 | – | – | 0.144 |
| P9H | – | 0.112 | – | – | – | 0.0552 | 0.0954 | – | – |
| I164K | 0.0592 | – | – | – | – | – | – | – | – |
| P134S | 0.0739 | 0.0776 | – | – | 0.0844 | 0.0548 | – | – | 0.133 |
| F218T | 0.0678 | 0.0851 | – | – | – | – | – | – | – |
| P225S | 0.0756 | 0.0888 | – | 0.0569 | 0.0961 | – | – | – | – |
| T174V | 0.074 | 0.0691 | – | – | – | 0.0473 | 0.0531 | – | – |
| G8E | – | – | – | – | 0.0714 | – | – | – | – |
| F101Y | 0.0636 | – | – | 0.0555 | 0.101 | – | – | – | – |
| R87G | – | 0.0749 | – | – | 0.0683 | – | – | – | – |
| F226S | 0.0807 | 0.0942 | 0.0788 | 0.0716 | – | 0.0309 | – | – | – |
| K7I | 0.0583 | – | 0.0695 | – | – | – | – | – | 0.0716 |
| K7E | – | – | – | 0.0564 | – | 0.0668 | – | – | – |
| Q151A | – | 0.0968 | 0.0624 | 0.0602 | – | – | – | – | – |
| I139L | 0.0692 | 0.0927 | – | – | – | 0.0657 | – | – | – |
| I139E | 0.0625 | – | – | 0.0634 | 0.0757 | – | – | 0.0599 | – |
| G35Q | 0.0526 | 0.0506 | 0.0367 | – | 0.0631 | – | – | – | – |
